# According to paper PMC6919601, “Identification of Plasmodium dipeptidyl aminopeptidase allosteric inhibitors by high throughput screening” (PLoS ONE, 2019):
# The campaign covered roughly 110,000 compounds. About 230 (0.21%) showed an effect of 50% or more. Some of the results follow.
# Target: DPAP1 (Plasmodium falciparum, UniProt Q8IIJ9)
# Assay: primary screen, percent inhibition; read by cleavage of a fluorogenic dipeptide substrate; higher = more effect of the substance
# Parameters: species or system P. falciparum D10 trophozoite lysates; single well
# 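Note: 30 min substrate incubation versus DMSO and 10 µM JCP410 controls.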
# Chain of DPAP1 (Q8IIJ9 whole entry, looked up): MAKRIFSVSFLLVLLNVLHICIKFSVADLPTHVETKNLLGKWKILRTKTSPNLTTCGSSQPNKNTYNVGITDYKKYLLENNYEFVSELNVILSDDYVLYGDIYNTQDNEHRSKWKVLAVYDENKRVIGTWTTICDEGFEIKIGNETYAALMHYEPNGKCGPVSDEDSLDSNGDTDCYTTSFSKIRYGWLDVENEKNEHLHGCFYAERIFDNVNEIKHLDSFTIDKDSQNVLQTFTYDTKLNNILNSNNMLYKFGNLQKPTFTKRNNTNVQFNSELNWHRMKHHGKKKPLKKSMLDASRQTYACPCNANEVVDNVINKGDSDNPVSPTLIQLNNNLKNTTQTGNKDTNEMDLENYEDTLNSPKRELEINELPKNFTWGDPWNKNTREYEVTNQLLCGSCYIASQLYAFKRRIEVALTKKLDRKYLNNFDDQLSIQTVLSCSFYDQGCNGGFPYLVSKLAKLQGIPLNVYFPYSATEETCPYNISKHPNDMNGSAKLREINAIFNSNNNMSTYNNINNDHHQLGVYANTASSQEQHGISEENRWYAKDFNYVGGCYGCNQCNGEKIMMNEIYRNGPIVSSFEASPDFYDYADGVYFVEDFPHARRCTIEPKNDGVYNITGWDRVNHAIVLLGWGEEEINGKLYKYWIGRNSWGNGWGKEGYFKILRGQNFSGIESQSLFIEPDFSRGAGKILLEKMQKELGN
row,SMILES,% Inhibition @ 10 uM [%]
1,CC1(C)CC2(CC(C)(C)N1)OC(=O)N(CCOC13CC4CC(CC(C4)C1)C3)C2(C)O (stereo not shown),-5.63
2,O=C(CN1Cc2ccccc2C1=O)NCCCN1CCCC1,-7.03
3,Cc1cc(O)c(NC(=O)COc2ccc(Cl)cc2)cc1C,-2.09
4,O=C(COc1ccccc1C(=O)NCC1CCCO1)NC12CC3CC(CC(C3)C1)C2 (stereo not shown),2.99
5,COc1cccc(C2C3=C(CC(C)(C)CC3=O)OC3=C2C(=O)CC(C)(C)C3)c1,1.63
6,CCC(=O)c1ccc(OCC(O)CN2CCN(c3ccccc3)CC2)cc1 (stereo not shown),14.8
7,Cc1nc(O)c2c(n1)OC(N)=C(C#N)C2c1cccc(Cl)c1 (stereo not shown),-5.9
8,COc1ccc(C(C)NC(=O)COc2ccccc2Cl)cc1 (stereo not shown),-1.36
9,NS(=O)(=O)c1cccc(NS(=O)(=O)c2ccc(O)c([N+](=O)[O-])c2)c1,1.44
10,COc1cccc(/C=C2N=C(/C=C/c3ccc(Cl)cc3)OC/2=O)c1,-1.65
11,CC(=O)Nc1ccc(NC(=O)c2sc3nc4c(cc3c2N)CCCCCC4)cc1,-8.02
12,C=CCSc1nc(-c2ccc(OC)cc2)c(C#N)c(=O)n1CC=C,0.777
13,O=C(NCc1ccco1)c1cc(-c2ccc(O)cc2)on1,2.01
14,O=S(=O)(c1cccc(Cl)c1Cl)N1CCCCC1,-2.51
15,CC1=NN(C(=O)c2cccc(Br)c2)C(O)(c2ccncc2)C1 (stereo not shown),4.13
16,CC1CN(C2=NC(=O)/C(=C/c3c[nH]nc3-c3ccccc3)S2)CC(C)O1 (stereo not shown),2.67
17,O=[N+]([O-])c1ccc(Oc2ccc(S(=O)(=O)Nc3ccc(Br)cc3)cc2)cc1,-5.41
18,O=C1CC(c2ccc(Cl)cc2)CC(=O)C1=CNCc1ccc(Cl)c(Cl)c1 (stereo not shown),0.503
19,CC(C)NS(=O)(=O)c1ccc(OCC(=O)NCc2ccccn2)cc1,-12.5
20,O=C(O)c1nccnc1C(=O)Nc1ccccc1,-0.415
21,O=S(=O)(c1ccccc1)c1nnn2c1nc(NCc1ccco1)c1sccc12,3.28
22,Cc1ccnc(NC(=O)c2noc3c2COc2ccc(C)cc2-3)c1,-8.17
23,CC1CCc2nc(NC(=O)c3ccc(S(=O)(=O)N4CCCCC4)cc3)sc2C1 (stereo not shown),16.9
24,COc1cccc(NC2=NS(=O)(=O)c3ccccc32)c1,-1.05
25,COc1cc(C(=O)Nc2ccc(Cl)c(Cl)c2)cc(OC)c1OC,-0.268

row,SMILES,% Inhibition @ 10 uM [%]
1,Cn1c(CO)c(-c2ccccc2)c2cc([N+](=O)[O-])ccc21,1.41
2,CC(=O)c1[nH]c(C)c(C(=O)NCc2cccs2)c1C,1.1
3,CCCCn1c(=O)c(C(=O)Nc2cccc(O)c2)c(O)c2ccccc21,-5.81
4,CC1CCCCN1S(=O)(=O)c1cccc2c(S(=O)(=O)N3CCCCC3C)cccc12 (stereo not shown),3.44
5,Cc1cccc(C)c1NC(=O)C1(NC(=O)CN2C(=O)c3ccccc3C2=O)CCCCC1,-8.3
6,O=C1C2=C(c3ccccc3CC23CCCCC3)n2nnnc2C1Cc1ccccc1 (stereo not shown),1.24
7,CC(C)ONC(c1ccccc1)(c1ccccc1)c1ccccc1,-1.18
8,CSCCC(NC(=O)/C(=C/c1ccccc1)NC(=O)c1ccc(Br)o1)C(=O)O (stereo not shown),-4.74
9,Cn1ncc2c(c1=O)Sc1c(cnn(C)c1=O)S2,2.41
10,Cc1ccc(-c2nnc3sc(-c4ccccn4)nn23)cc1,4.47
11,CCC(CN(C)Cc1ccccc1)NS(=O)(=O)c1csc(C(N)=O)c1 (stereo not shown),-2.13
12,COc1ccc(/C=C2\CCC/C(=C\c3ccc(OC)cc3)C2=O)cc1,-2.77
13,COc1ccccc1Oc1nc2c(C)cccn2c(=O)c1/C=C(\C#N)C(=O)N1CCOCC1,0.315
14,O=C(O)CCC(=O)N1N=C(c2ccccc2)CC1c1cccs1 (stereo not shown),-8.05
15,CC1=CC2=NC(C(F)(F)F)(C(F)(F)F)N=C(c3ccccc3)N2C=C1,-1.72
16,Cc1occc1C(=O)Nc1sc(C)c(C)c1C(N)=O,-1.42
17,CC(C)CC(N)C(=O)Nc1ccc2ccccc2c1 (stereo not shown),-5.9
18,COc1ccc(CCN2C(=O)c3ccccc3C(C(=O)O)C2c2ccccc2O)cc1OC (stereo not shown),-1.19
19,COc1ccc(-c2cc(C(F)(F)F)nc(SCC(=O)N3CCN(C)CC3)n2)cc1,-2.75
20,Cc1ccc(C(=O)Nc2ccc3ccccc3c2)o1,-2.21
21,Cc1cc(C)cc(NCc2cccnc2)c1,-8.04
22,Cc1c2cnn(CC(=O)NC3CCCc4ccccc43)c(=O)c2c(C)n1Cc1ccc(Cl)cc1 (stereo not shown),-2.17
23,CCCN1CCC(N2CCCCC2CO)CC1 (stereo not shown),-5.11
24,CCOC(=O)C1=C(CN2CCC(C(N)=O)CC2)NC(=O)NC1c1cccc(OC)c1OC (stereo not shown),-3.33
25,CC(C)CNC(=O)c1cc2nc(C3CC3)cc(C(F)(F)F)n2n1,-12.1

row,SMILES,% Inhibition @ 10 uM [%]
1,CCOc1cc(CN(C)CCN(C)C)ccc1OC,-2.6
2,COc1ccc(-c2ccc(O)nn2)cc1F,0.635
3,CCc1nn(C(CC)C(=O)NC2CCCC2)c(=O)c2cc3occc3n12 (stereo not shown),-2
4,O=C(Nc1ccc(O)c(-c2nc3ccccc3[nH]2)c1)C1CCCCC1,-18.6
5,COc1cc(/C=C2/NC(=O)N(CC(=O)Nc3ccc(C)cc3)C2=O)cc2c1OCO2,-5.92
6,Cc1ccc(NC(=O)c2cccnc2Cl)cc1,-2.8
7,CC(=O)Nc1ccc(N2C(=O)CSC23C(=O)Nc2ccccc23)cc1 (stereo not shown),-3.04
8,Cc1ccc(/C=C2/NC(=O)N(Cc3ccc(Cl)cc3)C2=O)cc1,-7.09
9,CCN(CCN(C)C)Cc1ccc(F)cc1F,-4.04
10,Cc1ccccc1CN(c1ccc(C(=O)N2CCC(C(N)=O)CC2)cc1)S(C)(=O)=O,-6.66
11,CCOC(=O)c1cnn2c1NC(c1ccc(C(C)C)cc1)CC2C(F)(F)F (stereo not shown),3.35
12,COC(=O)c1c(N)sc2c1CCc1ccccc1-2,3.94
13,CCc1ccc(-c2cn3ccc(C)cc3n2)cc1,1.27
14,COc1ccc(C(=O)Nc2nc(-c3nnn(-c4cccc(Cl)c4C)c3C)ns2)cc1,-4.36
15,O=C(O)c1ccc(S(=O)(=O)NC2CCCc3ccccc32)cc1 (stereo not shown),5.81
16,COc1cccc(-c2cc(C(F)(F)F)n3ncc(C(=O)N4CCc5ccccc5C4)c3n2)c1,-2.75
17,CC1(C)Nc2ccccc2N(CCC(=O)N2CCOCC2)C1=O,3.93
18,O=C(NC1CCC(NC(=O)c2ccncc2)CC1)c1ccncc1 (stereo not shown),0.986
19,CCOC(=O)Nc1cccc(OC(=O)Nc2ccccc2)c1,4.89
20,O=C1CCC(=O)N1CN1CCC(Cc2ccccc2)CC1,-3.52
21,CCC1CCCCN1C(=O)CSc1nnc(CNC(=O)c2cccs2)o1 (stereo not shown),-1.58
22,C=CCNc1nc(C)nc2c1sc1nc3c(cc12)COC(C)(C)C3,-1.66
23,CC1CCc2c(C(=O)NCCCN3C(C)CCCC3C)csc2C1 (stereo not shown),1.93
24,Cc1ccc(NC(=O)CN(Cc2ccccc2)S(C)(=O)=O)cc1C,0.231
25,Cc1ccc2c(c1)c1c(n2CC2COC(C)(C)O2)C(=O)CCC1 (stereo not shown),-4.94

row,SMILES,% Inhibition @ 10 uM [%]
1,O=C(CSc1nc2ccccc2c(=O)n1CCc1ccccc1)NCc1ccco1,1.03
2,Cc1cc(NC(=O)c2cc(C)on2)no1,-0.591
3,COCc1cc(C2SCC(=O)Nc3c2c(C)nn3-c2ccccc2)ccc1OC (stereo not shown),-3.63
4,O=C(NCC(=O)N1CCCC1C(=O)O)OC1CCCCC1 (stereo not shown),4.64
5,CCCc1nc2c3ccccc3nc(NCCc3ccc(S(N)(=O)=O)cc3)n2n1,-2.42
6,Cc1cccc(Cn2c(=O)n(Cc3ccco3)c(=O)c3sc4ccccc4c32)c1,-8.42
7,Nc1cccc(C(=O)N2N=C(C(F)(F)F)CC2(O)c2ccc(F)cc2)c1 (stereo not shown),-2.87
8,CCN(CC)CCCOC(=O)c1ccc(O)c(O)c1,-1.54
9,COc1ccc2c(CNCCc3ccco3)c(C(=O)O)n(Cc3ccccc3C)c2c1,-3.46
10,N#CC1=C(N)Oc2[nH]nc(-c3cccs3)c2C1c1ccc2c(c1)OCO2 (stereo not shown),-6.35
11,CCn1c(=O)c2sccc2n2c(CCCC(=O)N3CCN(c4ncccn4)CC3)nnc12,-2.44
12,COc1cc(Br)cc2c1Oc1nc(-c3cccc(O)c3)nc(O)c1C2,3.92
13,COc1c2c(nc3occc13)C(CC=C(C)C)(OC)C(O)CC2 (stereo not shown),0.501
14,COc1cc(C2C(C#N)=C(N)Oc3[nH]nc(-c4cccc5ccccc45)c32)cc(OC)c1OC (stereo not shown),1.03
15,O=C(Cn1c[n+](CC(=O)c2ccc(Br)cc2)cn1)c1ccc(Br)cc1,5.19
16,Cc1nc2c(CN(C)C)c(O)ccc2[nH]1,3.65
17,COc1cccc(OC)c1C(=O)Nc1c(C(=O)NC(C)(C)C)oc2ccccc12,1.75
18,CC1CCCC(C)N1C(=O)c1ccc(C(=O)N2C(C)CCCC2C)nc1 (stereo not shown),-7.89
19,COc1ccc(CC(=O)Nc2ccc(C(C)=O)cc2)cc1,-4.66
20,CCCN1CCN(c2ncnc3c2nc2n3CCCCC2)CC1,0.233
21,C=CCN1C(=O)S/C(=C\c2cccc(OCC)c2O)C1=O,-4.97
22,COc1cc(C2NCCc3c2[nH]c2ccccc32)ccc1OC(C)C (stereo not shown),1.02
23,COc1ccc2oc(=O)c(C(=O)Nc3nc(C45CC6CC(CC(C6)C4)C5)cs3)cc2c1,-2.44
24,O=C(O)c1cc(S(=O)(=O)Nc2ccccc2)c(Cl)cc1Cl,-17
25,CCCc1cc(O)n2nc(SCc3ccccc3)nc2n1,0.627
